86 molecules from ChEMBL document CHEMBL4888484, “Replenishing the malaria drug discovery pipeline: Screening and hit evaluation of the MMV Hit Generation Library 1 (HGL1) against asexual blood stage Plasmodium falciparum ,using a nano luciferase reporter read-out” (2022) can be followed below.

About 540 (0.36%) of roughly 150,000 compounds showed an effect of 50% or more. The list shows a part of the results.

As usually defined, the % Inhibition is the drop in the measured response relative to a control, in per cent.

In the experiment the test system is Plasmodium falciparum. The experiment can be described thus: Primary screen in NF54 nanoGlo assay, in single point, at 2uM, 72h; a lower Z score goes with more inhibition. The experiment is classed as functional, Erythrocyte. As to conditions: timepoint 72 hour.
In the case of `COCCC(=O)N(CCN(C)C)Cc1cccc(Cl)c1`, the “% Inhibition” value is -8% and the Z score was found to be 1.04.
Regarding `O=C(Nc1cccc2cccnc12)c1ccc(OC[C@H]2CCCO2)nc1`, the “% Inhibition” value is reported as -14% and the Z score came to 2.58.
On the same counts, the results for `c1cnc2nc(NCCCn3cccn3)c(NCCCn3cccn3)nc2c1` are 1% and -0.14.
On the same counts, the results for `O=C(Cc1cccc(F)c1)N[C@@H]1COCC[C@@H]1OCc1ccccc1` are -11% and 1.
Consider `COCCn1ccnc1C1CCN(C(=O)c2nn(C)cc2Cl)CC1`, for which the “% Inhibition” value is recorded as -11% and the Z score is 1.84.
With `CCCN1C(=O)CC[C@@H]2CN(C(=O)c3ccc(COC)o3)CC[C@@H]21`, the “% Inhibition” value is -23% and the Z score stood at 1.98.
On to `O=S(=O)(Nc1ccc2c(n1)CCCC2)c1ccnn1C1CCC1`, for which the “% Inhibition” value was -4% and the Z score was 0.52.
As to `Cc1nc(C)c(CC(=O)Nc2ccccc2C)c(=O)[nH]1`, the “% Inhibition” value is recorded as -7% and the Z score was 1.4.
Take `Nc1ccn2ncc(C(=O)N[C@H]3CCOCC34CCCC4)c2c1`: the “% Inhibition” value is 7% and the Z score was -1.38.
For `COc1cc(C(F)(F)F)c(Cl)cc1N`, the “% Inhibition” value is recorded as -20% and the Z score was found to be 2.55.
Take `COc1cc2c(cc1CN1CCC(CNC(=O)[C@@H]3CCCO3)CC1)OCCCO2`: the “% Inhibition” value was -11% and the Z score is 1.34.
As for `O=C(Nc1ccc(N2CCN(c3ccccc3)CC2)nc1)[C@@H]1CCCO1`, the “% Inhibition” value is 9% and the Z score is listed as -1.26.
Take `COc1ccc([C@@H](N)CN2CCCC2)cc1`: the “% Inhibition” value is reported as -13% and the Z score is recorded as 1.49.
For the molecule `CCOC(=O)[C@H]1CCCN(C(=O)CN2C(=O)COc3ccc(S(=O)(=O)N4CCCCC4)cc32)C1`, the “% Inhibition” value is given as -15% and the Z score was 1.48.
With `CC(C)Cn1nc2n(c1=O)[C@H](C(=O)N1CCc3ccccc3C1)CCCC2`, the “% Inhibition” value is listed as -7% and the Z score was found to be 0.91.
On to `Cc1ccc(CCC(=O)N2CC(N3C(=O)CCC3=O)C2)cc1F`, for which the “% Inhibition” value stood at 0% and the Z score is given as -0.05.
Consider `Cc1cccc(CCn2ccc3ncccc3c2=O)n1`, for which the “% Inhibition” value is -20% and the Z score is reported as 1.97.
On the same counts, the results for `O=C(Nc1ccc2c(c1)OCCO2)Nc1nnc(N2CCCC2)s1` are -15% and 2.77.
For `O=C(c1cccc(-c2cn[nH]c2)c1)N1[C@H]2CCNC[C@@H]1CC2`, the “% Inhibition” value is -6% and the Z score is listed as 1.04.
As for `Cc1ccc(CCN2C(=O)[C@@H]3CCCN3C2=O)cc1`, the “% Inhibition” value is listed as -9% and the Z score worked out at 0.79.
For the molecule `O=C(NC1CCOCC1)c1ccc2c(c1)n(CC1CC1)c(=O)n2C1CCCCC1`, the “% Inhibition” value is on record as 4% and the Z score is recorded as -0.43.
In the case of `CC(C)n1cnc2cc(CNC(=O)Cc3ccc(F)cc3)ccc21`, the “% Inhibition” value was determined as 2% and the Z score is reported as -0.18.
Consider `Cn1cc(S(=O)(=O)N2CC(=O)Nc3cccc4cccc2c34)cn1`, for which the “% Inhibition” value is 6% and the Z score is given as -0.64.
On the same counts, the results for `N#Cc1ccc(NCc2ccc(S(=O)(=O)N3CCCC3)cc2)cn1` are -7% and 0.61.
As for `O=C(NCCc1cc(F)ccc1F)N1CCCC(C2CCCCO2)C1` (configuration not stated), the “% Inhibition” value is on record as -1% and the Z score was 0.19.
For `COc1cccc(Cc2nc(-c3cccc(-c4ccn[nH]4)c3)no2)c1`, in that order: -3% and 0.45.
With `O[C@@]1(c2cc(-c3cccs3)no2)CCOC1`, the “% Inhibition” value was -8% and the Z score is 1.04.
With `CN(Cc1ccno1)Cc1ccc(F)cc1F`, the “% Inhibition” value is -1% and the Z score amounted to 0.15.
On the same counts, the results for `N/C(CC(=O)Nc1ccccc1Cl)=N\O` are -6% and 0.77.
Consider `Cc1cc(F)c(CNC(=O)[C@H]2CCc3nncn3CC2)c(F)c1`, for which the “% Inhibition” value is 10% and the Z score is -1.84.
For `C=CCn1cc(CN2CCc3[nH]cnc3[C@H]2c2ccnc3ccccc23)cn1`, the “% Inhibition” value is 14% and the Z score is listed as -2.49.
As for `COc1ccc(C(=O)N2CCCCCNC(=O)[C@@H]3CCCC[C@@H]32)c(OC)c1`, the “% Inhibition” value is on record as -7% and the Z score is given as 1.3.
For the molecule `COc1ccc(F)cc1S(=O)(=O)N1CC[C@H](c2ccsc2)C1`, the “% Inhibition” value is recorded as 0% and the Z score came out at 0.
As to `Nc1c2c(-c3ccccc3F)nc(NCCOc3ccccc3)nc2nn1-c1ccc(Cl)c(Cl)c1`, the “% Inhibition” value is recorded as 11% and the Z score was -1.34.
For `COC1(c2cnnn2C)CN(c2nc(C)nc3c2cnn3C)C1`, in that order: 4% and -0.37.
On the same counts, the results for `COc1ccc(-c2noc(-c3ccc(N(C)Cc4ccccc4)nc3)n2)cc1` are -1% and 0.15.
In the case of `O=C(c1ccco1)N1CCCCC[C@@H]1CN1CCOCC1`, the “% Inhibition” value is -10% and the Z score turned out to be 1.55.
With `C[C@H]1C(=O)Nc2ccccc2CN1Cc1noc2c1COCC2`, the “% Inhibition” value worked out at 6% and the Z score is -1.14.
In the case of `CC(=O)N1C[C@H](O)C[C@@H]1C(=O)N1CCN(Cc2ccccc2)C2(CCCCC2)C1`, the “% Inhibition” value is recorded as -14% and the Z score was 1.6.
`O=S(=O)(Cc1ccccc1F)N1CC(c2ccccc2)C(c2ncon2)C1` (configuration not stated): the “% Inhibition” value is -9% and the Z score is recorded as 1.59.
For `O=C1N[C@]2(CCOC2)C(=O)N1Cc1cc(Cl)ccc1Cl`, in that order: -17% and 2.1.
As for `COc1ccc(-c2c3cnn(C(C)C)c3nc3[nH]c(=O)sc23)cc1O`, the “% Inhibition” value is reported as -2% and the Z score came out at 0.3.
Regarding `CC[C@H]1[C@H](NC(=O)c2cncs2)[C@H]2CCO[C@H]21`, the “% Inhibition” value is recorded as -8% and the Z score is listed as 1.09.
As to `CNC(=O)Cc1noc(C[C@H]2CCC(C)(C)c3ccccc32)n1`, the “% Inhibition” value was found to be 6% and the Z score is listed as -0.81.
As to `CC(C)n1cc(NC(=O)N[C@@H](C)Cn2cncn2)cn1`, the “% Inhibition” value is -9% and the Z score was determined as 1.12.
Consider `CCC(CC)CN(CC)C(=O)c1scnc1C`, for which the “% Inhibition” value is reported as -4% and the Z score turned out to be 0.45.
Turning to `CN1N=C(c2ccc3c(c2)NC(=O)CO3)C[C@H]1c1cccc(C#N)c1`, the “% Inhibition” value was -15% and the Z score is 2.06.
On the same counts, the results for `O=C(NCCN1CCOCC1)c1cc2cc(NS(=O)(=O)c3ccc(F)cc3)ccc2n1Cc1ccc(F)cc1` are -16% and 3.07.
`OCCN1CCN(CCn2cc(Cl)cn2)CC1`: the “% Inhibition” value is given as -7% and the Z score is listed as 1.43.
Turning to `Cc1nc([C@H]2CCOC2)cc(N(C)Cc2noc(C3CCCC3)n2)n1`, the “% Inhibition” value is -18% and the Z score is listed as 1.93.
Regarding `COCC(C)=CCn1nnnc1-c1ccccn1`, the “% Inhibition” value is recorded as -4% and the Z score is given as 0.65.
Consider `O=C(c1cnn2c1CCC2)N1CCN(c2ccc(F)cn2)CC1`, for which the “% Inhibition” value was -5% and the Z score is reported as 0.74.
In the case of `CCOc1ccc(CN2CC[C@@]3(CCCN(Cc4cccnc4)C3=O)C2)cc1`, the “% Inhibition” value is -2% and the Z score amounted to 0.4.
As for `CN1CCCC1C1CCCN1C(=O)C1CCc2ccccc21` (configuration not stated), the “% Inhibition” value was -12% and the Z score is recorded as 2.1.
For `COCc1nc(-c2csc3c2CCCC3)n(CCO)n1`, the “% Inhibition” value is listed as -4% and the Z score is recorded as 0.83.
On the same counts, the results for `Cn1ccc(NC(=O)N2CCN(Cc3csc(C(C)(C)C)n3)CC2)n1` are -12% and 1.72.
As for `COc1cc(NC(=O)Cn2nc(C)c3c(C)onc3c2=O)cc(OC)c1`, the “% Inhibition” value was -14% and the Z score worked out at 1.38.
For the molecule `O=C(N[C@H]1CCC12CCCC2)C12CCCN1CCC2`, the “% Inhibition” value is -13% and the Z score was 2.
Regarding `CCC(=O)Nc1ccc(Cl)cc1F`, the “% Inhibition” value is listed as -6% and the Z score worked out at 0.64.
Regarding `Cc1cn2nc(C(=O)N3CCN(c4ccccc4)CC3)cc2c(N2CCCC2)n1`, the “% Inhibition” value is -4% and the Z score came to 0.49.
For the molecule `CN1CCN(C(=O)CNCc2cnc(N3CCOCC3)nc2)CC1`, the “% Inhibition” value is recorded as -17% and the Z score was determined as 3.14.
Regarding `CCc1cnc(NCc2c[nH]c(C(=O)OC)c2)s1`, the “% Inhibition” value is reported as -3% and the Z score was determined as 0.37.
`CCOc1ccccc1NC(=O)c1c(NCc2cccs2)sc2c1CCCCC2`: the “% Inhibition” value was 11% and the Z score was -1.73.
On the same counts, the results for `CCc1ccccc1OC1CN(C(=O)NCCCc2nnc3ccccn23)C1` are -22% and 2.22.
Take `Cc1ccccc1OCC(=O)N1CC[C@H](n2c(=O)[nH]c3cncnc32)C1`: the “% Inhibition” value was -18% and the Z score is given as 1.84.
For `CC(C)NC(=O)[C@@H]1C[C@@H](NC2CCCCCC2)CN1Cc1ccc2ccccc2c1`, the “% Inhibition” value is listed as -10% and the Z score is on record as 1.37.
On to `Cc1cc(NC(=O)CC2(CN)CCCCC2)nn1C`, for which the “% Inhibition” value stood at 3% and the Z score is reported as -0.38.
On to `CCn1c(-c2cc(NC(=O)COc3ccc(Cl)cc3)[nH]n2)cc2cc(OC)ccc21`, for which the “% Inhibition” value is listed as 5% and the Z score is given as -0.73.
Take `CC(C)(C)c1csc(CN2CCOC[C@@H]2CC(=O)c2ccco2)n1`: the “% Inhibition” value was -5% and the Z score was found to be 0.62.
Regarding `CC(=O)N(CC(=O)N(Cc1ccco1)C[C@H]1CCCO1)CC(C)C`, the “% Inhibition” value is -4% and the Z score came out at 0.59.
As to `O=C(C1CCC(F)(F)CC1)N1CCO[C@H](c2ccc(C(F)(F)F)cc2)C1`, the “% Inhibition” value is reported as -2% and the Z score is 0.39.
Take `c1cn(C[C@@H]2CCCO2)c(-c2c[nH]cn2)n1`: the “% Inhibition” value is -10% and the Z score is 1.27.
`COC[C@H]1CN(C(=O)NCc2oc3ccccc3c2C)CCO1`: the “% Inhibition” value is -3% and the Z score stood at 0.57.
On the same counts, the results for `N#Cc1nnc2ccccc2c1N1CC[C@H](OCCN2CCCCC2)C1` are -3% and 0.31.
For the molecule `Cn1cc(Cl)cc1C(=O)N1CC[C@](C)(O)[C@H](O)C1`, the “% Inhibition” value was found to be 2% and the Z score is -0.21.
For `COc1nc(C)ccc1C(=O)N1CCOCC1C1CCCC1=O` (configuration not stated), the “% Inhibition” value was -4% and the Z score is 0.47.
Consider `COc1ccc(Cl)cc1N1CCN(Cc2ccc(C(=O)NCc3cccc(C(F)(F)F)c3)o2)CC1`, for which the “% Inhibition” value is recorded as -1% and the Z score is listed as 0.21.
With `CC(C)(C)c1ccc(-c2ccc(C(=O)N3CC[C@H](NS(C)(=O)=O)C3)o2)cc1`, the “% Inhibition” value is recorded as -6% and the Z score is reported as 1.03.
On to `CCC(=O)Nc1cc(C(=O)OCc2ccc(C(=O)Oc3ccccc3)cc2)ccc1C`, for which the “% Inhibition” value is reported as -5% and the Z score was determined as 0.68.
Take `Cc1ccsc1CN(Cc1ccc(F)cc1)C(=O)CN(CC(C)C)C(=O)COc1ccc(Cl)cc1`: the “% Inhibition” value was -7% and the Z score is reported as 1.01.
In the case of `CCN(Cc1cnn(CC)c1)c1ncnc2ccsc12`, the “% Inhibition” value is recorded as 7% and the Z score is reported as -0.92.
In the case of `CCn1nc(CC(C)C)cc1C(=O)N1CCNC(=O)[C@@H]1CCO`, the “% Inhibition” value is 9% and the Z score is listed as -1.2.
Regarding `CCc1cc(N2CCN(c3ccc(C(=O)O)nn3)CC2)ncn1`, the “% Inhibition” value is recorded as -10% and the Z score stood at 1.18.
As for `COc1ccc(N(C)C(=S)Oc2ccc(C(=O)Nc3ccccc3)cc2)cc1`, the “% Inhibition” value is -31% and the Z score is 3.63.
Consider `Cc1cc(CC(=O)Nc2csc(N3CCCCC3)n2)n[nH]1`, for which the “% Inhibition” value was 5% and the Z score is reported as -0.55.
Consider `CCCn1cc(C(=O)N2CC[C@@H]3OCc4cccc(c4)Oc4cc(ccc4C)C(=O)N(C)CC(=O)N[C@@H]3C2)c(C)n1`, for which the “% Inhibition” value was found to be 7% and the Z score is -0.98.
